# This sample is rich in variants without activity.
# B1: TPR 5TU (parent)
# chain: GGAUCUUCUCGAUCUAACAAAAAAGACAAAUCUGCCACAAAGCUUGAGAGCAUCUUCGGAUGCAGAGGCGGCAGCCUUCGGUGGCGCGAUAGCGCCAACGUUCUCAACUAUGACACGCAAAACGCGUGCUCCGUUGAAUGGAGUUUAUCAUG
# Variants of: B1
# Assay: polymerase ribozyme fitness, log enrichment relative to wild type (log ratio); higher = more active; in vitro selection for triplet polymerase activity
# Method in brief: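 Frozen incubation at −7 °C formed the core of a single, triplicate in vitro selection round applied to PCR-built, transcribed mutant libraries of each subunit of a heterodimeric triplet polymerase ribozyme. Extended constructs were gel-excised, captured with streptavidin beads and amplified by RT-PCR, and input and output libraries were Illumina-sequenced with a filter of ≥10 input reads and ≥1 read per output. Fitness is the logarithm of genotype enrichment relative to wild-type enrichment, with inverse-variance-weighted replicate averaging, and the logarithm is base 2.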
row,Variant,polymerase ribozyme fitness (log ratio)
1,U15G U55A G86A G94U A107G C125U,≤ -4.2
2,A17G C69U G71U G80C U82G C93G G117A,≤ -4.2
3,A16U U33C G65C A66G C85G C103G C116A,≤ -4.2
4,A16U U44A C69A A97G G100C C116G A119U,≤ -4.2
5,A16G G46C U56A U61G G94A U101G,≤ -4.2
6,A17G A30C A47C C87A C95G A120U U148C,≤ -4.2
7,C18A A19U A24U U78A C118G A120U,≤ -4.2
8,A16U U77A,≤ -4.2
9,A17C U55A C75G C87A G100C G128U,≤ -4.2
10,A17C A23C A24U A37C A40U A66C C72U A73G G84U G86A,≤ -4.2
11,C14U U53A C54A C57U C103A A115U U135C G136A,≤ -4.2
12,C18G A26U A37C U55A U61G G71A C93A G94A U109G,≤ -4.2
13,U15C G70C A89U C95A A138G,≤ -4.2
14,A16C A28U C54U G92A A106U,≤ -4.2
15,A16U U56G A64C A91U A98U G100A U101G,≤ -4.2
16,A17G A52C C105G,≤ -4.2
17,C18G A19U C54A C69G C76G U135A G140U,≤ -4.2
18,A17U A29U C36G U53A C54U U56A C85G,≤ -4.2
19,A16C A41C G58A U61G A73C G94C,≤ -4.2
20,A16U A23U C99G,≤ -4.2
21,A17U C32G C75A A120U G128A U145G,≤ -4.2

row,Variant,polymerase ribozyme fitness (log ratio)
1,U15G A19C G50C C95U C108A,≤ -4.2
2,U15G A20C G50A U55A G88U G92C,≤ -4.2
3,U15A A40G U77G C116A U139A,≤ -4.2
4,A17U C72G U144A,≤ -4.2
5,U15C C76A U77G G81U C87U C99A G133U A137G,≤ -4.2
6,A16U A23C G59A C85G,≤ -4.2
7,U15G G86A A89C A121U G133A G141A U146G A150C,≤ -4.2
8,A17U A20C C54U A73U G136U U144G U145G,≤ -4.2
9,U15C C38U A47C G48A G50C U56A C96A G117A U146G,≤ -4.2
10,A16U A21C A26U U55A C76G C93U,≤ -4.2
11,U15A A17G G25U A49U A89C U102A G141A U146C,≤ -4.2
12,A16U A21C G92A C116G U144G,≤ -4.2
13,A16C C32G C51U G74C A91U,≤ -4.2
14,U15G A66U G84A A110U,≤ -4.2
15,A17U A21G A24U G88C G133U G141A,≤ -4.2
16,A16U A24C A28U U45A U78C G83C A97G U104G G143C,≤ -4.2
17,A17G A29G U45C U61A C75G,≤ -4.2
18,A17U A60C C76A G94C A106C A138U U146G C149U,≤ -4.2
19,U15C A23U A30G U31A A60C U61G C96G,≤ -4.2
20,A17G G42U C54A C85G A147C,≤ -4.2
21,A16U A23G U55G G58A G59A A64U G70C C85U A97U C114G,≤ -4.2

row,Variant,polymerase ribozyme fitness (log ratio)
1,A16U A37U U53A G67U C105U A107G,≤ -4.2
2,A17U A20U C27G A39G U56A C96A C103U,≤ -4.2
3,U15G C32A A66G C72A C87G A142U,≤ -4.2
4,A17C C27G A29C G71U C79U A115G G126C G136U,≤ -4.2
5,U15A G88C A97C,≤ -4.2
6,A17C A91U G128A U139C A150U,≤ -4.2
7,U15G C54G G83C A97C A98G,≤ -4.2
8,U15A C87G A138U,≤ -4.2
9,A16C A23C A26C A49C U55A G86U C129G G140A,≤ -4.2
10,A17G A28C G59A A66C C72U G92U,≤ -4.2
11,A17C A28U C95U A110U A122U,≤ -4.2
12,U15G A29C C35G C75G C85U C99U C125G U134A,≤ -4.2
13,A16U A24G A26G C27U A39U G48U G58C U61A G86U A89G,≤ -4.2
14,U15A U56G G92U A115G C116G G126A A142C A150G,≤ -4.2
15,U15A A23C G80U C85U U104G C105G G126A G143U,≤ -4.2
16,C18G A22G G25U A41U G94A U127C C131G,≤ -4.2
17,A16G A23U A52G U55A C79A U127G,≤ -4.2
18,A16C A24U G50C A60C C79A U90C,≤ -4.2
19,A16U C27A A30U U53C C95G U134C,≤ -4.2
20,A17C U53A C79A C87U A113U A138C,≤ -4.2
21,A16C A22U A49C G59C C93A,≤ -4.2

row,Variant,polymerase ribozyme fitness (log ratio)
1,A16G C32A A40C C72U G124C,≤ -4.2
2,A17U G86U A89G G92A,≤ -4.2
3,U15A G50C C108G,≤ -4.2
4,A17C G65C G71A G94A A137C,≤ -4.2
5,U15G C108A,≤ -4.2
6,A17C C43U C79G G92A G112C A142G U144A,≤ -4.2
7,A17C C36G C76G A91U G92U A119U,≤ -4.2
8,A17G A28C U61A G86A C87U U144C,≤ -4.2
9,U15G U31A G42C U55A A91C A97G,≤ -4.2
10,U15C A37C C75A U90C,≤ -4.2
11,A16C G59A C103G A122G A137U A147C A150C,≤ -4.2
12,A16U U56C C87G,≤ -4.2
13,C18G A24U A29U C85G G86A A106G,≤ -4.2
14,A16U C54U G68U,≤ -4.2
15,U15G A22C G25A A29U C85G G124A U127G G136U,≤ -4.2
16,A16U A89G C93G A97C A121U G141C,≤ -4.2
17,C18A A22G A29G C76A G84A,≤ -4.2
18,C18G A23G G46C U78A C87U U90G A120U A142U,≤ -4.2
19,C18A A28C G34C A47U A49C U53A G68A,≤ -4.2
20,A17U U55A C96G A120G C131G,≤ -4.2
21,A17G U77A,≤ -4.2
